Laboratory results: patent publication USRE50631E1, “ROR1 antibody immunoconjugates” (VelosBio Inc., priority 2017, dated 2025)

Tests used:
[1] = system: HCC1806; experiment: Cytotoxicity in vitro (CellTiter-Glo viability), HCC1806; assay type: cell-based, human; conditions: HCC1806 (TNBC)
[2] = system: RPMI-8229; experiment: Cytotoxicity in vitro (CellTiter-Glo viability), RPMI-8229; assay type: cell-based, human; conditions: RPMI-8229 (MM), 72 hours
[3] = system: MDA-MB-231 xenograft; experiment: MDA-MB-231 human TNBC mammary fat pad xenograft model; assay type: in vivo, mouse; conditions: 47 days
Procedure: NCR mice were subcutaneously injected in the mammary fat pad with MDA-MB-231 cells (ROR1-positive human triple negative breast cancer (TNBC) cells) in a cell suspension in matrigel. When palpable tumors were observed (at approximately 250 mm^3), the animals were randomized into three different groups, 9 mice/group: vehicle control, 1 mg/kg ADC-A IV qw, and 5 mg/kg ADC-A IV qw. The mice received 5 total treatments and tumors were harvested 24 h after the last treatment. Mean tumor growth inhibition (TGI) was calculated utilizing the above formula.

[4] = system: Mec-ROR; experiment: Cytotoxicity in vitro (CellTiter-Glo viability), Mec-ROR; conditions: read-out: EC50 (nM), cytotoxicity in vitro; Mec-ROR (CLL), 72 hours
[5] = system: MDA-MB-468; experiment: Cytotoxicity in vitro (CellTiter-Glo viability), MDA-MB-468; conditions: read-out: EC50 (nM), cytotoxicity in vitro; MDA-MB-468 (TNBC), 96 hours (values marked *)
[6] = system: SKES; experiment: Cytotoxicity in vitro (CellTiter-Glo viability), SKES; assay type: cell-based, human; conditions: SKES (EWS), 72 hours
[7] = system: MDA-MB-231 cells; experiment: Internalization by MDA-MB-231 cells (pulse-chase flow cytometry); assay type: cell-based, human; conditions: MDA-MB-231 cells
Procedure: Multiple methods were used to determine antibody internalization. In one approach, internalization was measured using a pulse-chase methodology that quantitates non-internalized, cell surface antibody at 15, 30, 60, 120, and 240 minutes using flow cytometry. Jeko-1 cells were grown and harvested prior to confluency, washed with cold PBS and resuspended at 1×10^7 in cold FACS buffer (PBS+2% FBS-Fisher/Gibco Cat. No. 16140071). 1×10^6 cells were added to microcentrifuge tubes or wells. Internalization of Ab1 and ADC constructs by the cells was determined at saturating antibody concentrations, using 30 μg/ml for Jeko-1 cells and 100 μg/mL for MDA-MB-231 cells. […]
Cells and antibody were incubated on ice for 20 minutes, spun at 300×g for 4 minutes, washed twice with 200 μL of FACS buffer, and resuspended in 100 μL of FACS buffer. […] A time course for antibody internalization was generated for each test article as described above, after which antibody remaining on the cell surface was detected using a PE-labeled secondary antibody. […] The median fluorescent intensity (MFI) was quantitated and the degree of receptor internalization was determined using the amount of the antibody or ADC present at each time point when compared to the amount present at time=0. […]

[8] = system: Mino; experiment: Cytotoxicity in vitro (CellTiter-Glo viability), Mino; assay type: cell-based, human; conditions: Mino (MCL)

B1: ADC-A: Ab1 conjugated via MAL (mc)-VC-PAB linker to MMAE (conjugate)
heavy: QVQLQESGPGLVKPSQTLSLTCTVSGYAFTAYNIHWVRQAPGQGLEWMGSFDPYDGGSSYNQKFKDRLTISKDTSKNQVVLTMTNMDPVDTATYYCARGWYYFDYWGHGTLVTVSS[skipping human IgG1 constant region]
light: DIVMTQTPLSLPVTPGEPASISCRASKSISKYLAWYQQKPGQAPRLLIYSGSTLQSGIPPRFSGSGYGTDFTLTINNIESEDAAYYFCQQHDESPYTFGEGTKVEIKRTVAAPSVFIFPPSDEQLKSGTASVVCLLNNFYPREAKVQWKVDNALQSGNSQESVTEQDSKDSTYSLSSTLTLSKADYEKHKVYACEVTHQGLSSPVTKSFNRGEC
Q: What does the source list for B1?
A: EC50 ([1]; 72 hours): 38.1 nM; EC50 ([1]; 96 hours (values marked *)): 13.4 nM; EC50 [2]: 174 nM; mean TGI ([3]; 1 mg/kg IV qw): 56.4% at 1 mg/kg;; mean TGI ([3]; 5 mg/kg IV qw): 94.2% at 5 mg/kg.; EC50 [4]: 208 nM; EC50 [5]: 21.7 nM; EC50 [6]: 15.3 nM; internalization compared with Ab1 [7]: did not negatively impact binding or internalization; EC50 ([8]; 72 hours): 19.5 nM; EC50 ([8]; 96 hours (values marked *)): 27.7 nM
